# Test results as given in paper PMC10726135.
# Some of the results follow. At the low end of the ranking, values are background and their order means little. The protein was read in a cell extract, so binding may be indirect.
# Target: T1, HNF4alpha2 (COS-7 nuclear extract) (UniProt P41235)
# T1 sequence: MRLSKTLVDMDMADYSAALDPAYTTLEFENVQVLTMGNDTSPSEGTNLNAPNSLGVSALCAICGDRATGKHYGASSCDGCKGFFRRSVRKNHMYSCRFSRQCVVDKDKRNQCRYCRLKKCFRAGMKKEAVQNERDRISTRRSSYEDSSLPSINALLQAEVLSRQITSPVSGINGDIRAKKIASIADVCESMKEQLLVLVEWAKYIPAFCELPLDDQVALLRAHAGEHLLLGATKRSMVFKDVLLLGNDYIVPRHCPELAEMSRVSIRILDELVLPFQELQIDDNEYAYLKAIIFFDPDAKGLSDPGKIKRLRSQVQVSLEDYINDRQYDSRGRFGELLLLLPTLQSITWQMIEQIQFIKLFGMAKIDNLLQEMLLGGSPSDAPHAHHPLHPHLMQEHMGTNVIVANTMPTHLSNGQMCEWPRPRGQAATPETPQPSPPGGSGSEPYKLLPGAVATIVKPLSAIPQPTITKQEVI
# Test: protein-binding microarray
# Conditions: COS-7 nuclear extract on double-stranded Agilent 4x180k PBM; binding buffer, salt, pH and temperature not given; high values mean tight binding; double strand, one strand shown; sequences stand for … in …GCCTAGGGAGATTAGAGTATCGGTCGA
row,Sequence,binding signal (log2 normalized intensity)
1,CATTTCCTTACAAACACAACATTGAAAGCG,-0.774
2,CCCTCTCTTTCTGGAACCTACAGCTGGGGC,-0.00996
3,GGCTTCTGGACTATGCCTTGAACTTTAAGG,2.21
4,ACCTTTTCCCTCCCTCCCAGTACAAAGTTC,5.13
5,TGACCGATAACCCTCCTGAACATAATTGCA,-0.656
6,GTCTGTTGACCTTTGGCCAAGGGCAGTGTT,6.71
7,GTTTTCACTGCTGGGTTTCTTCCCTAATGG,1.02
8,GTTAAAGCACAGTGTCTTTGTTTGGAAAAG,0.367
9,CATCATTCCGTGACTGAGCTCGCGCCGGGC,-0.944
10,GATAGACTTATCTCAGCCTGGCTAAAACCC,-1.16
11,TGCTTTCTGACTCTTTCTTTACAGGAAAAA,-0.97
12,CTCTGCCCTTGGCCTACTTAGTCCAGGTTT,1.32
13,GGAGGGATCAAGCAGGTGACCTTCGATCAC,5.71
14,TGAAATAGCATGAATTTGGTACCTCCCCCC,5.29
15,ACTTGTTCCCTGTCGCTATCTTATCTGGGC,1.62
16,CCAAGCCTAGAAAAACAACTAAAGGAATGC,-1.18
17,TGAGACTTTGGACTTTTGAACTAAGGCTGG,4.72
18,ACGAAAGGGACTTTGATCTTCTTACCCCTT,4.9
19,TACTAAAACAGGGAGCAGGCAGATTTGACC,1.78
20,AGGTCAAAGTTTGCCTTGACCTCTAAAGGG,3.13
21,AGGGCAGAGGTCAGCCCACAGGTCAATCCA,2.16
22,ACCTTTTAGATAGTAGCCCTTTGTATCTTT,1.99
23,TGAGGAATCTAAGATAAGCAGCATTCCACC,-0.938
24,GATTTTAGAAGTCACTCCTTCCTCAAGACC,-1.17

row,Sequence,binding signal (log2 normalized intensity)
1,AAACCTCCCCCAAACCAAAGAGAAATGGTG,3.22
2,GAAAGTCATGCTGAAGTACAGATTCCTGTA,0.797
3,AAAATAGGGATTAAGCAGATGTTTCTGCAA,-0.66
4,GAAGCAATCAAGCAATCATATATGCATTTG,-0.425
5,TTTAAGGATCCAGACGGATTCCACGGGGGT,-0.149
6,CAAAGGTCATGGCAACAGTTTTCTGGGATG,2.82
7,GCCACCCTGAAGGCTGAGCCTAGGAGTTCA,-1.19
8,TATCAGAAGCTTACATATCACTTCCATCAG,-1.05
9,GTCTTCATGGGCAAATAAAGCTAACCAGCT,-0.966
10,GAGCAGGGATTGGGGATGCTCAAAGTACAC,1.66
11,TAAGGTCCTGTTTGTCAGCATCTTCACCGT,1.32
12,AAAACTGGCCCTGATTTCAAAGTTCAGTTT,2.73
13,AGCCGTTTCTGTCCAGAGTTTAAATGACCT,3.45
14,GGTCCTAAGACTAACCTTTGACCATCCACG,5.96
15,AGATCTGGATATGCCTGGGGTTCCAGTTAC,0.693
16,TGCCCTGAGCCGCCAGGCGGGTTCTGCCAT,-1.08
17,GGAGGTAGGGCAAGAGGACAAGGTTCAAAA,2.52
18,GGTTGCAAAAACAATCAGGGGTTAGGGTGA,-1.03
19,AGATAGCATTCCAAGAGAGCAAAGTGCTTT,0.587
20,GCCAGAACTGAGCCCTGGTTTATCTGTTGT,0.938
21,CCTGGGCATGTCTGCTCCCTGAGTTTCTGC,0.189
22,ACCAAAGCAGCTAGCAAATACAAGGACACT,-1.05
23,TTACAATGGAAAGATTAGGTCAAAGGGCGT,5
24,GGCAGAGCATAGAAGTAAGAAATCAGGAGC,-1.21

row,Sequence,binding signal (log2 normalized intensity)
1,GCAGCTCTTTACAAAGCCCATGCTGGACCC,3.94
2,CCTTCTGTTAGAATGTATTGAGAAGAAACC,0.656
3,AGTGTAAGATAAAAATCAGAGATCAAGATA,-1.06
4,CTTTGACCCTGTTTTGTAAACTCCCTTTGA,1.78
5,ACACAGGACTTGATCCAGGGCAAAGGTCAT,7.38
6,CAAAATATCTCACTCCCACACTGGTAACCT,0.649
7,TCTCATGGCTCATTTTGGGCATCTGCAGGG,1.53
8,CTTTGCTTTGAGAAAGCAAAGTCCCTGGGG,1.22
9,GATGTGGAATGAAACCAGTTTCAAAACCTG,-1.21
10,CAGAGCCTGCCCCCGGGGCCGCCTTGGAAA,0.0699
11,CTCCCTTTTCAACAATGTTATCTTTTCAAG,1.07
12,GTCATAGCTTTATCTCTCCCCCACCACTGC,4.95
13,GGCAGTCGGGAAATTCCAGCAGGAATTGAT,-1.18
14,TTCCATACCAAAGACTGAGCAGCTGGAGGG,-1.18
15,AAACCTTCCAAAGTTCAACCTCATTATCTT,2.21
16,ATTAAGAGGCTACAACCAGACTTGGAGAGA,-1.3
17,CTAACCATAGGAGGCTGGTCTAAGTCCACA,1.94
18,ACTTTGGAATGGCAGTGCTTGTCCAAGATG,0.841
19,GGGTTAGGGTTAGGGTTACGGTTAGGGTTA,1.58
20,ATCAACTTTCAGAAGGGGACAAGCACATTA,-0.659
21,TACAAGGTCCATAAAACCAGTCAGGCAAAC,-1.21
22,GCAGAAATCAACTGCCCTCTGCCTTTCAGG,-0.661
23,AAGGGAGAAAGACATGTTTCTAACTGCCCG,-0.412
24,TCTGGGGTCCTCTGCTGCCCTCTAGGGTTG,1.41
